# From patent US4480030A, “Tripeptide derivatives and their application in assaying enzymes” (Pentapharm A.G., priority 1980, dated 1984)
# Counter-ions that a name gives are not always drawn. Not every detail of the peptide structures is certain; ends, links or a residue may be inferred. Square brackets hold non-standard residues; d marks the D form. Peptide text beside a SMILES is read from it. * marks the point of attachment. dCha = N[C@H](CC1CCCCC1)C(=O)O; dChg = N[C@@H](C(=O)O)C1CCCCC1; dPhg = N[C@@H](C(=O)O)c1ccccc1; pNA = O=[N+]([O-])c1ccc(N*)cc1; AMC = Cc1cc(=O)oc2cc(N*)ccc12; Tos = Cc1ccc(S(=O)(=O)*)cc1; dNle = CCCC[C@@H](N)C(=O)O; dNva = CCC[C@@H](N)C(=O)O; dAbu = CC[C@@H](N)C(=O)O; βNA = c1ccc2cc(N*)ccc2c1; Cbz = O=C(OCc1ccccc1)*; Bz = O=C(c1ccccc1)*; NEtG = CCNCC(=O)O; OtBu = CC(C)(C)O*; Ms = CS(=O)(=O)*; Sar = CNCC(=O)O
# Target: T1, human factor Xa (Homo sapiens, UniProt P00742)
# T1 construct: from tissue
# T1 sequence (P00742 235-488 limits assumed): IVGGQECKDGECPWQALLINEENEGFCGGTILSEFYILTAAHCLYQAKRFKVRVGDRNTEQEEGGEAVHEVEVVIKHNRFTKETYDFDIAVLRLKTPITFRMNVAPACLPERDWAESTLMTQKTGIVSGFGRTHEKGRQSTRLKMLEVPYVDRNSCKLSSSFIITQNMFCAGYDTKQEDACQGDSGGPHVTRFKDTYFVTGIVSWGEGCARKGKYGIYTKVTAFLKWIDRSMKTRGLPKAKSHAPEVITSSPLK
# T1 sequence (P00742 41-179 partner limits assumed): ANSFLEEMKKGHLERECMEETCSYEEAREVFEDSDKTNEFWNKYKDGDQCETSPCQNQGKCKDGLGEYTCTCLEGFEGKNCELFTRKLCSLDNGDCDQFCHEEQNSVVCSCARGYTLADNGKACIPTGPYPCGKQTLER
# Assay: Activity of factor Xa obtained by RVV activation of factor X in normal human blood plasma on substrate (split product H-R5 released)
# Type: biochemical
# Settings: substrate concentration 2 × 10^-4; TRIS-imidazole buffer pH 8.4, ionic strength 0.3, 37° C.; citrated plasma activated with Russel viper venom 75 seconds; value calculated for 1 ml of citrated plasma
# Description: The values of the factor Xa activity given in Table 4 were determined experimentally in the manner described hereinafter:
# For determining the activity of human factor Xa 0.01 ml of normal citrated plasma was mixed with 0.20 ml of a solution of Russel viper venom in TRIS-imidazole buffer having a pH of 8.4 and an ionic strength of 0.3 and containing 15 mmoles of CaCl2 […]. The mixture was incubated for 75 seconds at 37° C. in order to activate factor X present in the plasma and convert it completely into factor Xa. To the incubate there was added first 1.40 ml of TRIS-imidazole buffer (pH 8.4, ionic strength 0.3) heated to 37° C. and then 0.40 ml of a 2×10^-3 M aqueous solution of a substrate of the invention. Thereafter, the quantity of split produce H--R^5 in nanomoles released per minute was determined, and the corresponding value for 1 ml of citrated plasma was calculated.
row,SMILES,"Activity of factor Xa as obtained by activation of factor X in 1 ml of normal human blood plasma by means of RVV, expressed in nanomoles of split product H--R^5 released per minute"
1,"CC[C@H](C)[C@H](NC(=O)c1ccccc1)C(=O)N[C@@H](CCC(=O)O)C(=O)NCC(=O)N[C@@H](CCCNC(=N)N)C(=O)Nc1ccc([N+](=O)[O-])cc1 [Comparison substrate, Bz--Ile--Glu(OH)--Gly--Arg--pNA.HCl, reference compound] (Bz-IEGR-pNA)",820 nanomoles of split product H--
2,"CC(C)C[C@@H](NC(=O)OCc1ccccc1)C(=O)NCC(=O)N[C@@H](CCCNC(=N)N)C(=O)Nc1ccc([N+](=O)[O-])cc1 [Example 1, Cbo-D-Leu-Gly-Arg-pNA.HBr] (Cbz-[dL]-Gly-Arg-pNA)",1520 nanomoles of split product H--
3,"Cc1cc(=O)oc2cc(NC(=O)[C@H](CCCNC(=N)N)NC(=O)CNC(=O)[C@@H](CC(C)C)NC(=O)OCc3ccccc3)ccc12 [Example 2, Cbo-D-Leu-Gly-Arg-MCA.HBr] (Cbz-[dL]-Gly-Arg-{AMC})",760 nanomoles of split product H--
4,"CC(C)C[C@@H](NC(=O)OCc1ccccc1)C(=O)N(C)CC(=O)N[C@@H](CCCNC(=N)N)C(=O)Nc1ccc2ccccc2c1 [Example 4, Cbo-D-Leu-Sar-Arg-2-NA.HBr] (Cbz-[dL]-[Sar]-Arg-βNA)",895 nanomoles of split product H--
5,"COc1cc(NC(=O)[C@H](CCCNC(=N)N)NC(=O)CN(C)C(=O)[C@@H](CC(C)C)NC(=O)OCc2ccccc2)cc2ccccc12 [Example 5, Cbo-D-Leu-Sar-Arg-4-MeO-2-NA.HBr]",815 nanomoles of split product H--
6,"CC(C)C[C@@H](NC(=O)OCc1ccccc1)C(=O)NCC(=O)N[C@@H](CCCNC(=N)N)C(=O)Nc1ccc([N+](=O)[O-])cc1 [Example 6, Cbo-D-Leu-Gly-Arg-pNA.AcOH] (Cbz-[dL]-Gly-Arg-pNA)",1520 nanomoles of split product H--
7,"Cc1ccc(S(=O)(=O)N[C@H](CC(C)C)C(=O)NCC(=O)N[C@@H](CCCNC(=N)N)C(=O)Nc2ccc([N+](=O)[O-])cc2)cc1 [Example 7, Tos-D-Leu-Gly-Arg-pNA.HBr] (Tos-[dL]-Gly-Arg-pNA)",705 nanomoles of split product H--
8,"CCCC[C@@H](NC(=O)OCc1ccccc1)C(=O)NCC(=O)N[C@@H](CCCNC(=N)N)C(=O)Nc1ccc([N+](=O)[O-])cc1 [Example 8, Cbo--D-Nleu--Gly--Arg--pNA.HBr] (Cbz-[dNle]-Gly-Arg-pNA)",1568 nanomoles of split product H--
9,"CCC[C@@H](NC(=O)OCc1ccccc1)C(=O)NCC(=O)N[C@@H](CCCNC(=N)N)C(=O)Nc1ccc([N+](=O)[O-])cc1 [Example 9, Cbo--D-Nval--Gly--Arg--pNA.HBr] (Cbz-[dNva]-Gly-Arg-pNA)",1105 nanomoles of split product H--
10,"CC[C@@H](NC(=O)OCc1ccccc1)C(=O)NCC(=O)N[C@@H](CCCNC(=N)N)C(=O)Nc1ccc([N+](=O)[O-])cc1 [Example 10, Cbo--D-But--Gly--Arg--pNA.HBr] (Cbz-[dAbu]-Gly-Arg-pNA)",825 nanomoles of split product H--
11,"C[C@@H](NC(=O)OCc1ccccc1)C(=O)NCC(=O)N[C@@H](CCCNC(=N)N)C(=O)Nc1ccc([N+](=O)[O-])cc1 [Example 11, Cbo--D-Ala--Gly--Arg--pNA.HBr] (Cbz-[dA]-Gly-Arg-pNA)",100 nanomoles of split product H--
12,"N=C(N)NCCC[C@H](NC(=O)CNC(=O)[C@@H](CC1CCCCC1)NC(=O)OCc1ccccc1)C(=O)Nc1ccc([N+](=O)[O-])cc1 [Example 12, Cbo--D-CHA--Gly--Arg--pNA.HBr] (Cbz-[dCha]-Gly-Arg-pNA)",1528 nanomoles of split product H--
13,"N=C(N)NCCC[C@H](NC(=O)CNC(=O)[C@H](NC(=O)OCc1ccccc1)C1CCCCC1)C(=O)Nc1ccc([N+](=O)[O-])cc1 [Example 13, Cbo--D-CHG--Gly--Arg--pNA.HBr] (Cbz-[dChg]-Gly-Arg-pNA)",1800 nanomoles of split product H--
14,"N=C(N)NCCC[C@H](NC(=O)CNC(=O)[C@@H](CC1CCC(O)CC1)NC(=O)OCc1ccccc1)C(=O)Nc1ccc([N+](=O)[O-])cc1 (stereo partly drawn) [Example 14, Cbo--D-CHT--Gly--Arg--pNA.HBr]",1548 nanomoles of split product H--
15,"N=C(N)NCCC[C@H](NC(=O)CNC(=O)[C@H](NC(=O)OCc1ccccc1)c1ccccc1)C(=O)Nc1ccc([N+](=O)[O-])cc1 [Example 15, Cbo--D-Ph'Gly--Gly--Arg--pNA.HBr] (Cbz-[dPhg]-Gly-Arg-pNA)",1468 nanomoles of split product H--
16,"N=C(N)NCCC[C@H](NC(=O)CNC(=O)[C@@H](Cc1ccccc1)NC(=O)OCc1ccccc1)C(=O)Nc1ccc([N+](=O)[O-])cc1 [Example 16, Cbo--D-Phe--Gly--Arg--pNA.HBr] (Cbz-[dF]-Gly-Arg-pNA)",1320 nanomoles of split product H--
17,"CC(C)[C@@H](NC(=O)OCc1ccccc1)C(=O)NCC(=O)N[C@@H](CCCNC(=N)N)C(=O)Nc1ccc([N+](=O)[O-])cc1 [Example 17, Cbo--D-Val--Gly--Arg--pNA.HBr] (Cbz-[dV]-Gly-Arg-pNA)",1285 nanomoles of split product H--
18,"CC[C@@H](C)[C@@H](NC(=O)OCc1ccccc1)C(=O)NCC(=O)N[C@@H](CCCNC(=N)N)C(=O)Nc1ccc([N+](=O)[O-])cc1 [Example 18, Cbo--D-Ile--Gly--Arg--pNA.HBr] (Cbz-[dI]-Gly-Arg-pNA)",1235 nanomoles of split product H--
19,"CC(C)(C)OC(=O)[C@@H](CCC(=O)NCC(=O)N[C@@H](CCCNC(=N)N)C(=O)Nc1ccc([N+](=O)[O-])cc1)NC(=O)OCc1ccccc1 [Example 19, Cbo--D-Glu(α-OtBu)--Gly--Arg--pNA.HBr]",660 nanomoles of split product H--
20,"CC(C)(C)OC(=O)C[C@@H](NC(=O)OCc1ccccc1)C(=O)NCC(=O)N[C@@H](CCCNC(=N)N)C(=O)Nc1ccc([N+](=O)[O-])cc1 [Example 20, Cbo--D-Asp(β -OtBu)--Gly--Arg--pNA.HBr] (Cbz-[dD](OtBu)-Gly-Arg-pNA)",595 nanomoles of split product H--
21,"N=C(N)NCCC[C@H](NC(=O)CNC(=O)[C@@H](Cc1c[nH]cn1)NC(=O)OCc1ccccc1)C(=O)Nc1ccc([N+](=O)[O-])cc1 [Example 21, Cbo--D-His--Gly--Arg--pNA.2HBr] (Cbz-[dH]-Gly-Arg-pNA)",795 nanomoles of split product H--
22,"CC(C)C[C@@H](NC(=O)OCc1ccccc1)C(=O)N(C)CC(=O)N[C@@H](CCCNC(=N)N)C(=O)Nc1ccc([N+](=O)[O-])cc1 [Example 22, Cbo--D-Leu--Sar--Arg--pNA.HBr] (Cbz-[dL]-[Sar]-Arg-pNA)",1432 nanomoles of split product H--
23,"CC(C)C[C@@H](NC(=O)OCc1ccccc1)C(=O)N[C@@H](C)C(=O)N[C@@H](CCCNC(=N)N)C(=O)Nc1ccc([N+](=O)[O-])cc1 [Example 23, Cbo--D-Leu--Ala--Arg--pNA.HBr] (Cbz-[dL]-Ala-Arg-pNA)",580 nanomoles of split product H--
24,"CCCC[C@@H](NS(C)(=O)=O)C(=O)NCC(=O)N[C@@H](CCCNC(=N)N)C(=O)Nc1ccc([N+](=O)[O-])cc1 [Example 24, CH3 SO2 --D-Nleu--Gly--Arg--pNA.AcOH] (Ms-[dNle]-Gly-Arg-pNA)",1000 nanomoles of split product H--
25,"CCCC[C@@H](NC(=O)OCC(C)C)C(=O)NCC(=O)N[C@@H](CCCNC(=N)N)C(=O)Nc1ccc([N+](=O)[O-])cc1 [Example 25, isoButoxy-CO--D-Nleu--Gly--Arg--pNA.AcOH]",820 nanomoles of split product H--
26,"CCN(CC(=O)N[C@@H](CCCNC(=N)N)C(=O)Nc1ccc([N+](=O)[O-])cc1)C(=O)[C@@H](CC(C)C)NC(=O)OCc1ccccc1 [Example 26, Cbo--D-Leu--N(Et)Gly--Arg--pNA.HBr] (Cbz-[dL]-[NEtG]-Arg-pNA)",495 nanomoles of split product H--
